The whole screen tested about 45,000 compounds, of which about 200 (0.44%) were called active. Another 7% or so got no clear call; they are omitted. Calls follow the shape of the dose curve; as a rule, active = well fitted activation curve with a large enough effect; inconclusive = small, poorly fitted or top-dose-only effect; inactive = no such curve, though single readings can be large or run the other way. The list shows a part of the results.
assay: qHTS of TDP-43 Inhibitors: NCGC Sytravon Library Screen; details: yeast TDP-43 toxicity rescue, BacTiter-Glo growth, 24 h; series mostly up to 46.1 µM; growth rescue (activation): at the top concentration; also: nearly all actives have a fitted effect of over 55% in size; as to growth rescue (activation): 0% is about no effect
Method in brief: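 TDP-43-expressing yeast, pregrown in raffinose, seeded at OD600 0.02 in galactose medium with compound for 24 hr at 30 deg C. Growth read by BacTiter-Glo luminescence, so rescue of toxicity appears as activation.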
Potency is read from the fitted curve at half-maximal effect.

Row | Structure (SMILES) | growth rescue (activation) | Potency
1 | CCc1cc(C(=O)N2CCCC(C(=O)c3cccc(OC(C)C)c3)C2)n(C)n1 (stereo not given) | inactive: 10.5% | –
2 | O=C(c1ccc(Cl)cc1)N1C2C=CC(C2)C1(C(F)(F)F)C(F)(F)F (stereo not given) | inactive: 2.42% | –
3 | Cc1cc[n+](-c2[nH]c(=O)sc2/C=N/N=C(\[O-])c2ccccc2)cc1 | inactive: -1.03% | –
4 | CC(=O)Nc1ccc(NC(=O)C2CC(=O)N(c3ccccc3Cl)C2)cc1 (stereo not given) | inactive: 8.05% | –
5 | Cc1cccc(NC(=O)CN2CCN(C(=O)C3CCC3)CC2)c1C | inactive: 5.09% | –
6 | Cc1nn(-c2ccccc2)c(N2CCCC2)c1/C=N/NC(=O)c1cc(-c2cccnc2)nc2ccccc12 | inactive: 9.47% | –
7 | CN1CCC(=NNC(=O)COc2ccc(Cl)cc2)CC1 | inactive: 12% | –
8 | Cc1ccc(C(=O)CSc2ncnc3ccccc23)o1 | inactive: 30.8% | –
9 | O=S(=O)(NCc1ccccn1)c1ccc2ccccc2c1 | inactive: 7.52% | –
10 | Cc1cc(NC(=O)COC(=O)CNS(=O)(=O)c2c(F)cc(F)cc2Br)no1 | inactive: 11.9% | –
11 | CCOC(=O)CSc1nc2ccc(N)cc2s1 | inactive: 41.1% | –
12 | COc1ccccc1N1CCN(C2CCN(S(=O)(=O)c3ccc(NC(C)=O)cc3)CC2)CC1 | inactive: 13.1% | –
13 | CC(C)[C@H](NS(=O)(=O)c1ccccc1F)C(=O)OCC(=O)Nc1cccc(S(N)(=O)=O)c1 | inactive: 14.8% | –
14 | Cc1ccccc1NS(=O)(=O)c1ccc(NS(=O)(=O)c2cccs2)cc1 | inactive: 9.2% | –
15 | COCCn1c(=O)[nH]c2cc(C(=O)N3CCN(c4cccc(Cl)c4)CC3)ccc2c1=O | inactive: 15.6% | –
16 | N#Cc1ccc(C(=O)OCC(=O)Nc2ccc(S(N)(=O)=O)cc2)cc1 | inactive: -4.92% | –
17 | N=C1S/C(=C\c2ccc(O)cc2)C(=O)N1c1ccc(F)cc1 | inactive: 3.97% | –
18 | Cc1cc(C)c(S(=O)(=O)N2CCN(C(=O)N(C)C)CC2)c(C)c1 | inactive: -13.8% | –
19 | CCC(=O)Nc1ccc(NC(=O)c2cc3ccccc3o2)c(OC)c1 | inactive: -9.81% | –
20 | Cc1cc(C)cc(NC(=O)CN2CCN(C(=O)c3cccs3)CC2)c1 | inactive: -8.7% | –
21 | Cc1ccc(NCC(=O)N=Nc2c(O)n(C)c3ccccc23)cc1 | inactive: 9.97% | –
22 | Cc1ccc(C)c(C(O)c2ncc(-c3ccc(Cl)cc3)[nH]2)c1 (stereo not given) | inactive: 10% | –
23 | O=C(CSc1nc(-c2ccco2)cc(C(F)(F)F)n1)NCCN1CCOCC1 | inactive: -3.44% | –
24 | Cc1cc(=O)[nH]c(SCC(=O)NC2CCCCC2)n1 | inactive: -1.44% | –
25 | CN1C(=O)/C(=C\c2ccc(-c3ccccc3)o2)SC1=S | inactive: 11.7% | –
26 | COc1ccc(NC(=O)N2CCCC2C(=O)NC2CCCC2)cc1 (stereo not given) | inactive: 17.2% | –
27 | COc1c(C)cc(C(O)c2ncc(-c3cccc(C(F)(F)F)c3)[nH]2)cc1C (stereo not given) | inactive: -3.78% | –

Row | Structure (SMILES) | growth rescue (activation) | Potency
28 | CCOC(=O)C1CCCN(C(=O)c2cc(C)oc2C)CC1 (stereo not given) | inactive: 16.9% | –
29 | CCNc1nc(NCC)nc(N/N=C/c2ccc(O)c(OC)c2)n1 | inactive: 8.29% | –
30 | CCCN=C(C)C1=C(O)c2ccccc2C1=O | inactive: 18.5% | –
31 | Cc1ccc(C(=O)NN(CCC(=O)NC(C)(C)C)C2=NS(=O)(=O)c3ccccc32)cc1 | inactive: 23.4% | –
32 | COc1ccccc1-c1nc(C#N)c(N2CCN(Cc3ccccc3)CC2)o1 | inactive: 1.61% | –
33 | O=C(N/N=C/c1ccc([N+](=O)[O-])s1)c1ccccc1 | inactive: -7.13% | –
34 | CCOc1ccc(OCCOCCOc2ccccc2Cl)cc1 | inactive: 24.2% | –
35 | COc1cc(NC(=O)CCn2c(=O)oc3ccccc32)cc(OC)c1OC | inactive: 7.61% | –
36 | O=C(OCn1ncc(Br)c(Br)c1=O)c1ccc(F)cc1 | inactive: -91% | –
37 | Cc1noc(C)c1C(=O)NC(C)c1ccc(Cl)cc1Cl (stereo not given) | inactive: 11.7% | –
38 | N#Cc1cc(-c2ccccc2)nc(N2CCNCC2)n1 | inactive: -2.1% | –
39 | Oc1[nH]c(=S)sc1/C=C1\C(c2ccccc2)=Nc2ccccc21 | inactive: -3.23% | –
40 | Cc1nnc(-c2ccc(Oc3ccc(Br)cc3)c([N+](=O)[O-])c2)o1 | inactive: 11.2% | –
41 | CC1(C)Cc2ccccc2C(COc2ccccc2)=N1 | inactive: 3.27% | –
42 | Cc1ccc(NC(=O)NCc2cccn2C)cc1C | inactive: -6.65% | –
43 | CC1=N/C(=C\c2ccc([N+](=O)[O-])cc2)C(=O)N1c1ccc(F)cc1F | inactive: -13.9% | –
44 | COc1cccc(NC(=O)Cn2c(=O)n(-c3cc(OC)c(OC)c(OC)c3)c(=O)c3ccccc32)c1 | inactive: -20.9% | –
45 | O=C(Cc1ccccc1)NNc1c2ccccc2nc2ccccc12 | inactive: 4.43% | –
46 | CN(C)C(CNC(=O)c1cccc(C#N)c1)c1ccco1 (stereo not given) | inactive: -1.02% | –
47 | CCCS(=O)(=O)c1c(S(=O)(=O)CCC)c2ccc(C(N)=O)cn2c1C(=O)c1ccc(F)cc1 | inactive: 2.54% | –
48 | CC1(C)C(=O)Nc2ccccc2N1C(=O)COc1ccccc1C#N | inactive: -2.03% | –
49 | C=CCn1c(C)cc(C(=O)COc2ccc(S(=O)(=O)N3CCCC3)cc2[N+](=O)[O-])c1C | inactive: 5.91% | –
50 | CCN(CC)S(=O)(=O)c1ccc(OC)c(NC(=O)c2ccc(=O)[nH]c2)c1 | inactive: -3.98% | –
51 | Cc1nc(C(F)(F)F)ccc1C(=O)N1CCC1(C)C(=O)NS(C)(=O)=O (stereo not given) | inactive: 9.13% | –
52 | CSc1ccc(CN2CCC(C(=O)NCc3ccc(C)cc3)CC2)cc1 | inactive: -2.87% | –
53 | COc1ccc(NC(=O)c2ccc(NC(=O)CSc3nccc(=O)[nH]3)cc2)cc1 | inactive: 2.48% | –
54 | CN(C)c1ccc(P(=O)(OCc2ccccc2)C(O)c2ccc(Br)cc2)cc1 (stereo not given) | inactive: 4.85% | –

Row | Structure (SMILES) | growth rescue (activation) | Potency
55 | O=C(Nc1ccc(-n2cnnn2)cc1)C1CCCN1C(=O)NC1CCCCC1 (stereo not given) | inactive: 19.7% | –
56 | O=C(NC1CCCC1)C(c1ccccc1F)N(C(=O)c1ccco1)C1CCCC1 (stereo not given) | inactive: 10% | –
57 | O=C(NCC1CCCO1)C(=O)N/N=C/c1cc(Cl)ccc1O (stereo not given) | inactive: -7.47% | –
58 | CN1CCN(C2=C(NS(=O)(=O)c3cccs3)C(=O)c3ccccc3C2=O)CC1 | inactive: -1.04% | –
59 | COCCn1nnnc1C(c1ccccc1)N1CCN(C(=O)c2ccco2)CC1 (stereo not given) | inactive: 11% | –
60 | CCCCN(C)CCNC(=O)C1CCN(c2nc3ccc(CC)cc3s2)CC1 | inactive: 10.1% | –
61 | N/C(=N\OC(=O)c1cccs1)c1cccc(Br)c1 | inactive: -73.1% | –
62 | O=C(CCCOc1ccc(Br)cc1)NCCc1ccc(OC(F)F)cc1 | inactive: 18.8% | –
63 | CC1(C(=O)NS(=O)(=O)c2ccc3ccccc3c2)CCN1C(=O)C1(c2ccc(Cl)cc2)CCC1 (stereo not given) | inactive: -7.5% | –
64 | Cc1c(-c2cccc(Cl)c2)nc2ccccc2c1C(=O)OCC(=O)N(C)C1CCS(=O)(=O)C1 (stereo not given) | inactive: -4.02% | –
65 | CCCCc1nnc(NC(=O)CSc2nc(N)cc(=O)[nH]2)s1 | inactive: 4.41% | –
66 | CCN(CCn1cccn1)C(=O)c1cc(COc2c(F)cccc2F)on1 | inactive: 11.7% | –
67 | CCN(CC)c1cccc(OCC(=O)N(C)CCC#N)c1 | inactive: 18% | –
68 | COc1ccc(OCC(=O)NNC(=S)NC(=O)c2ccc([N+](=O)[O-])cc2)cc1 | inactive: -14.9% | –
69 | CCOC(=O)c1c(NC(=O)CN2CCCCC2)sc(CN(C)C)c1-c1ccccc1 | inactive: -6.88% | –
70 | Cn1c(=O)cc(NCCc2ccccc2)[nH]c1=O | inactive: 1.75% | –
71 | O=C(C1CCCN(S(=O)(=O)c2cc(Cl)ccc2Cl)C1)N1CCCC1 (stereo not given) | – | active: 14.1 µM
72 | O=C(CCc1c[nH]c2ccccc12)NCc1ccncc1 | inactive: -0.4% | –
73 | O=C(NCCN1CCN(C(=O)c2cccc([N+](=O)[O-])c2)CC1)C(=O)NCc1ccc(Cl)cc1 | inactive: -9.79% | –
74 | COc1ccc(NC(=O)CNC(=O)Cc2ccccc2)cc1OC | inactive: 12.9% | –
75 | CC(=O)Nc1ccc(NC(=O)c2csc([C@H]3C[C@H](O)[C@@H](CO)O3)n2)cc1 | inactive: -1.33% | –
76 | C=CC[N+]1(CC(=O)NCc2ccc(NC(C)=O)cc2)CCOCC1 | inactive: 0.551% | –
77 | Cc1cc(C)n2nc(C(=O)N/N=C/c3cccc(Cl)c3)nc2n1 | inactive: -16.8% | –
78 | CC(=O)Nc1ccc([N+](=O)[O-])c(CS(=O)(=O)c2ccc(C)cc2)c1[N+](=O)[O-] | inactive: -12.8% | –
79 | O=C(COC(=O)c1cc(Cl)ccc1[N+](=O)[O-])Nc1cccc2ccccc12 | inactive: 6.65% | –
80 | O=C(CCc1nnc(CCCc2ccccc2)o1)NCCCC1CCCC1 | inactive: 18.5% | –
81 | Cc1ccc(O)c(C(CC(=O)NC2CCCCC2)c2ccccc2)c1 (stereo not given) | inactive: -11.2% | –

Row | Structure (SMILES) | growth rescue (activation) | Potency
82 | CC1(C(=O)O)CCN1C(=O)c1ccccc1F (stereo not given) | inactive: 11% | –
83 | Cc1ccc(C(C)C)cc1OCC(=O)NNC(=O)Nc1ccccc1 | inactive: 5.26% | –
84 | CC(N)c1csc(Nc2ncccn2)n1 (stereo not given) | inactive: 9.59% | –
85 | CCCS(=O)(=O)NC(=O)C1(C)CCCN(C(=O)c2ccccc2OC)C1 (stereo not given) | inactive: 8.8% | –
86 | O=C(Cn1ccc2ccccc2c1=O)NCCC(=O)N1CCCCC1 | inactive: 6.23% | –
87 | CC(C)[C@H](NC(=O)c1c(F)cccc1F)C(=O)N1CCN(c2ccc(F)cc2)CC1 | inactive: -22.1% | –
88 | NS(=O)(=O)c1ccc(NC(=S)Nc2ccc(Br)c(Cl)c2)cc1 | inactive: 18% | –
89 | Cc1c(Cl)cccc1NC(=S)NC1CCN(Cc2ccccc2)CC1 | inactive: 9.27% | –
90 | CCC(C)c1ccc(OCC(=O)Nc2ccc(CN3CCOCC3)cc2)cc1 (stereo not given) | inactive: 2.5% | –
91 | O=S(=O)(Cc1ccccc1)NCC1CCCN(Cc2ccc(F)c(F)c2)C1 (stereo not given) | inactive: 5.41% | –
92 | Cc1ccc(C(=O)N/C(=C/c2cccs2)C(=O)NCC2CCCO2)cc1 (stereo not given) | inactive: 6.65% | –
93 | Cc1cc(/C=C(\C#N)C(=O)O)c(C)n1CC1CCCO1 (stereo not given) | inactive: 1.91% | –
94 | CCn1cc(CN2CCN(Cc3ccc(OC)c(C)c3C)C(CCO)C2)c(C)n1 (stereo not given) | inactive: -10.1% | –
95 | O=C(CCc1ccccc1)Nc1ccc(S(=O)(=O)N2CCOCC2)cc1 | inactive: 27.4% | –
96 | Cc1ccc(C)c(NC(=S)N(Cc2ccc(Cl)cc2)Cc2ccc(C(=O)O)cc2)c1 | inactive: -9.23% | –
97 | COc1ccc(NS(=O)(=O)c2ccc3nc(COc4ccc5ccccc5c4)[nH]c3c2)cc1 | inactive: 1.26% | –
98 | O=C(CSc1nnc(-c2n[nH]c3ccccc23)n1-c1ccccc1)Nc1ccccc1Cl | inactive: 5.56% | –
99 | Cc1c2cnn(CC(=O)Nc3c(F)c(F)cc(F)c3F)c(=O)c2c(C)n1Cc1ccccc1F | inactive: 12.2% | –
100 | Cn1nnnc1SCC(=O)Nc1cc(C(F)(F)F)ccc1N1CCOCC1 | inactive: 12.7% | –
101 | O=C(c1ccc(COc2ccccc2Cl)o1)N1CCN(Cc2ccc3c(c2)OCO3)CC1 | inactive: -2.42% | –
102 | CCOc1cc(NS(=O)(=O)c2ccc(NC(C)=O)cc2)c(OCC)cc1NC(=O)c1cccs1 | inactive: 15.9% | –
103 | O=C(CSCCO)Nc1cccc([N+](=O)[O-])c1 | inactive: -2.59% | –
104 | Cc1nnc(NC(=O)C2CCN(C(=O)c3ccco3)CC2)s1 | inactive: -3.16% | –
105 | O=C(O)c1cccc(S(=O)(=O)N(Cc2ccccc2)c2cccc(C(F)(F)F)c2)c1 | inactive: -16.8% | –

Source: PubChem BioAssay AID1347073 (National Center for Advancing Translational Sciences (NCATS), 2019)
